Measurements published in the RNAGym collection of RNA variant scans (doi:10.1093/nar/gkz1192).
The source gives no read counts; variants with many changes may rest on few reads.

B1: CPEB3 Ribozyme (parent)
chain: UAACAGGGGGCCACAGCAGAAGCGUUCACGUCGCAGCCCCUGUCAGAUUCUGGUGAAUCUGCGAAUUCUGCUGUAUAUCUC

Variants of: B1
Test: self-cleavage, relative activity (ratio to wild type); higher = more cleavage; in vitro, sequencing
How it was run: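 Barcoded CPEB3 ribozyme mutants, produced by rounds of error-prone PCR, self-cleaved while being transcribed with T7 RNA polymerase for 5 hours at 37°C and during a subsequent 15 min DNase I step before EDTA was added. Sequencing of template-switched cDNA on Illumina gave cleaved and total reads, and DNA sequencing assigned barcodes to variants. Each variant's relative activity is its cleaved/total read fraction divided by the unmutated ribozyme's fraction, averaged across three batches. A variant needed a minimum of 5 reads.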

Row | Variant | self-cleavage
1 | UAACUGGGGGCCACAGCAGAAGCGUUCACGUCGCAGCCCCUGUCAGAUUCUGGUGAGUCUGCGAGUCCUGGUGAAUAUCCC [A5U A57G A65G U67C C71G U74A U80C] | 0.25
2 | UAACUGGGGGCCACAGCAGAAGCGUUCACGUCGCAGCCCCUGUCAGAUUCUGGUGAGUCCGCGAAAUCUGCUGUAUAUCUC [A5U A57G U60C U66A] | 0.22
3 | UAACUGGGGGCCACAGCAGAAGCGUUCACGUCGCAGCCCCUGUCAGAUUCUGGUGAGUCUGCGAAUUCUGCAGUAUAUCUC [A5U A57G U72A] | 0.59
4 | UAACUGGGGGCCACAGCAGAAGCGUUCACGUCGCAGCCCCUGUCAGAUUCUGGUGAGUCUGCGAAUUCUGCCGUAUAUCUC [A5U A57G U72C] | 1.29
5 | UAACUGGGGGCCACAGCAGAAGCGUUCACGUCGCAGCCCCUGUCAGAUUCUGGUGAAUCUGCGGAUUCUGCUGUACAUCAC [A5U A64G U76C U80A] | 1.19
6 | UAACUGGGGGCCACAGCAGAAGCGUUCACGUCGCAGCCCCUGUCAGAUUCUGGUGAAUCUGCGUGUUCUGCUGUAUAUCUC [A5U A64U A65G] | 0.12
7 | UAACUGGGGGCCACAGCAGAAGCGUUCACGUCGCAGCCCCUGUCAGAUUCUGGUGAAUCUGCGUAUUCCGCUGUAUAUCUC [A5U A64U U69C] | 0.25
8 | UAACUGGGGGCCACAGCAGAAGCGUUCACGUCGCAGCCCCUGUCAGAUUCUGGUGAAUCUGCGAUCUCUGCUGUAUAUCUC [A5U A65U U66C] | 0.17
9 | UAACUGGGGGCCACAGCAGAAGCGUUCACGUCGCAGCCCCUGUCAGAUUCUGGUGAAUCUGCGAAUUCUGCUGUUUGUCUC [A5U A75U A77G] | 1.17
10 | UAACUGGGGGACACAGCAGGUGCGUUCUCGUCGCAGCCCCUGUCAGAUUCCGGUGAAUAUGCGAAUUCUGCUGUAUAUCUC [A5U C11A A20G A21U A28U U51C C59A] | 0.05
11 | UAACUGGGGGACACAGCAGAAGCGUUCACGUCGCAGCCCCUGUCAGAUUCUGGCGAAUCUGCGAAUUCCGCAGUACUUCUC [A5U C11A U54C U69C U72A U76C A77U] | 0.06
12 | UAACUGGGGGGCACUGUAGAAGCGUUCACGUCGCAGCCCCUGUCAGAUUCUGGUGAAUCUGCGAAUUCUGCUGUAUAUCUC [A5U C11G A15U C17U] | 0.49
13 | UAACUGGGGGGCACAGCAGGAGCGUUCCCGUCGCAGCCCCUGUCAGAUUCUGGUGAAUCUGCGAAUUCUGCUGUAUACCUC [A5U C11G A20G A28C U78C] | 0.72
14 | UAACUGGGGGGCACAGCAGAAGCGUUCACGUCGCAGCCCCUGUCAGAUUCUGGUGGAUCUGCGAAUUCUGCUGUAUAUCUC [A5U C11G A56G] | 0.66
15 | UAACUGGGGGGCACAGCAGAAGCGUUCACGUCGCAGCCCCUGUCAGAUUCUGGUGAAUCUGCGUAUUCUGCUGUAUAUCUC [A5U C11G A64U] | 0.42
16 | UAACUGGGGGGCACAGCAGAAGCGUUCACGUCGCAGCCCCUGACAGAUUCUGGUGAAUCUGCGUAUUCUGCUGUAUAUCUC [A5U C11G U43A A64U] | 0.16
17 | UAACUGGGGGGCACAGCAGAAGCGUUCACGUCGCAGCCCCUGUCAGAUUCUGGUGAAUCUGCGAAUCCUGCUGUAUAUCUC [A5U C11G U67C] | 0.2

Row | Variant | self-cleavage
18 | UAACUGGGGGUCACGGCAGAAGCGUUCACGUCGCAGCCCCUGUCAGAUUCUGGUGGAUCUGCGAGUUCUGCUGUAUAUCAC [A5U C11U A15G A56G A65G U80A] | 0.06
19 | UAACUGGGGGUCACUGCGGAAGCGUUCACGUCGCAGCCCCUGUCAGAUUCCGGUGAAUCUGCGAAUUCUGCUGUAUAUCUC [A5U C11U A15U A18G U51C] | 0.04
20 | UAACUGGGGGUCACUGCAGAAGCGUUCACGUCGCAGCCCCUGUAAGAUUCUGGUGAAUCUGCGAAUUCCGCUGUAAACCUC [A5U C11U A15U C44A U69C U76A U78C] | 0.06
21 | UAACUGGGGGUCACUGCAGAAGCGUUCACGUCGCAGCCCCUGUCAGAUUCUGGUGAAUCUGCGAAUUCCGCUGUAUAUCCC [A5U C11U A15U U69C U80C] | 0.34
22 | UAACUGGGGGUCACAGCAGAAGCGUUCUCGCCGCAGCCCCUGUCAGAUUCUGGUGAAUCUGCGAAUCCUGCUGUAUAUCCC [A5U C11U A28U U31C U67C U80C] | 0.08
23 | UAACUGGGGGUCACAGCAGAAGCGUUCUCGUCGCAGCCCCUGCCAGAUUCAGGUGAAUCUGCGAAUUCAGCUGUAUAUCUC [A5U C11U A28U U43C U51A U69A] | 0.07
24 | UAACUGGGGGUCACAGCAGAAGCGUUCUCGUCGCAGCCCCUGUCAGAUUCUGGUGAAUCUGCGAAUUCUGCUGCAUUACUC [A5U C11U A28U U74C A77U U78A] | 0.69
25 | UAACUGGGGGUCACAGCAGAAGCGUUCACGUCGCAGCCCCUGUCAGAUUCUGGUGAGUCUGCGAAUUCUGCUGUAUAUCUC [A5U C11U A57G] | 0.56
26 | UAACUGGGGGUCACAGCAGAAGCGUUCACGUCGCAGCCCCUGUCAGAUUCUGGUGAAUCUGCGGAUUCUGCUGUAUAUCUC [A5U C11U A64G] | 0.28
27 | UAACUGGGGGUCACAGCAGAAGCGUUCACGUCGCAGCCCCUGUCAGAUUCUGGAGAAUCGGCGAAUUCUGCUGUAUAUCUC [A5U C11U U54A U60G] | 0.19
28 | UAACUGGGGGUCACAGCAGAAGCGUUCACGUCGCAGCCCCUGUCAGAUUCUGGCGGAUCUGCGAAUUCUGCUGUAUAUCUC [A5U C11U U54C A56G] | 0.14
29 | UAACUGGGGGCAACAGCAGUAGCGUUCACGUCGCGGCCCCUGUCAGAUUCUGGUGAAUCUGCGAAUUCUGCUGUAUAUCUC [A5U C12A A20U A35G] | 0.52
30 | UAACUGGGGGCAACAGCAGAAGCGUUCACGUCGCAGCCCCUGUCAGAUCCUGGUGAAUCUGCGAAUUCUGCUGUAUAUCUC [A5U C12A U49C] | 0.49
31 | UAACUGGGGGCAACAGCAGAAGCGUUCACGUCGCAGCCCCUGUCAGAUUCUGGUGAAUCUGCGAACUCUGCUGUAUAUCUC [A5U C12A U66C] | 0.48
32 | UAACUGGGGGCGGCAGCAGAAGCGUCCACGUCGCAGCCCCUGUCCGAUUCUGGUGAAUCUGCGAAUUCUGCUGUAUAUCUC [A5U C12G A13G U26C A45C] | 0.12
33 | UAACUGGGGGCGACAGCAGAAGCGUUCACGCCGCAGCCCCUGUCAGAUUCUGGUGAAUCUGCGAAUCCUGCUGUAUAUCUC [A5U C12G U31C U67C] | 0.09
34 | UAACUGGGGGCUACGGCAGAAGCGUUCACGUCGCAGCCCCUGUCAGAUUCUGGUGAAUCUGCGAAUUCUGCUGUAUAUCUC [A5U C12U A15G] | 1.05
